For 42 sequences, binding signal results are on record in paper PMC7819943, “Rice protein-binding microarrays: a tool to detect cis-acting elements near promoter regions in rice”.

The list shows a part of the results.

This assay deals with T1, OsWOX13 (Oryza sativa, UniProt Q5QMM3 1-267).
T1 sequence: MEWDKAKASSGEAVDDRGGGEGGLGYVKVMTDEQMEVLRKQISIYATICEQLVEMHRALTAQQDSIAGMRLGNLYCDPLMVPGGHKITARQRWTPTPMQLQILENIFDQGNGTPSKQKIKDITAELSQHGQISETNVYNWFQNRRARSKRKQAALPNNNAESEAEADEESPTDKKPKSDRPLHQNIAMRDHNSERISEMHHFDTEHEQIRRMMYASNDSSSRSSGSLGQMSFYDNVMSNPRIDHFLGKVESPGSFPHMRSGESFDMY
As to the kind of experiment: protein-binding microarray (RPBM); PBS, 2% BSA, 51.3 ng/ul salmon testes DNA, 50 uM zinc acetate, 200 nM TF, 25 C, 1 h; high values mean tight binding. The settings on record: protein: recombinant; tags: N-terminal polyhistidine and DsRed monomer fusion (pET32a); label: CyDye5-dUTP incorporated in the synthesized complementary strand; 3' TTTTT single-stranded linker to array surface; dsDNA, one strand shown. The method, boiled down:
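Transcription factors, each fused N-terminally to a polyhistidine tag and DsRed, were expressed in E. coli BL21-CodonPlus and purified on Ni–NTA. A custom Agilent array was made double-stranded by primer extension with Cy5-dUTP and blocked with 2% BSA. It was incubated with 200 nM protein in PBS, 2% BSA, salmon testes DNA and 50 µM zinc acetate at 25 °C for 1 h, then washed. The binding signal is per-feature fluorescence intensity (arbitrary units) read on an Axon 4000B scanner.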
In the case of “TAATTAAAATGAGTAAATTAACAACAATTAGTATGCAGCTCGGAGTCACCTAGTGCAG”, the binding signal was 15300 fluorescence intensity (a.u.).
As for “GTGGGCCCAATCATTTTCTCTCACTGACATATGGGCCCCACGGAGTCACCTAGTGCAG”, the figure is 4720 fluorescence intensity (a.u.); as for “ACCGTAACATCATATTGTCAAATTATGGAATAATTAGGTTCGGAGTCACCTAGTGCAG”, 5740 fluorescence intensity (a.u.).
As to “GAAATTGAGAAAGATTTACATTATGTAATTAACTTAAATACGGAGTCACCTAGTGCAG”, the binding signal is 23600 fluorescence intensity (a.u.).
As for “TTCACTCAGCTGATTGAAAGTGTTATTTTACTCATGCTTGCGGAGTCACCTAGTGCAG”, the figure is 39300 fluorescence intensity (a.u.); as for “ACAATTAATTAACTGAGAAAGTCTCCTAGATTAACAGATTCGGAGTCACCTAGTGCAG”, 26300 fluorescence intensity (a.u.); as for “AATGGACAGTAATTACTGATTATCATTGTCAACCAAATGTCGGAGTCACCTAGTGCAG”, 30500 fluorescence intensity (a.u.).
For “CCTGACTGCACACGCGTACACGCACGTACGCAAGGACCAGCGGAGTCACCTAGTGCAG” the value was 4820 fluorescence intensity (a.u.); for “CGTGTCGCTAAATGGGCTAATTGGGCTGATCGGCCAATTTCGGAGTCACCTAGTGCAG”, 11200 fluorescence intensity (a.u.).
For “TGACTAATTACAGGTTAAACCATCTCATCTCTTATATCACCGGAGTCACCTAGTGCAG” the value was 37400 fluorescence intensity (a.u.).
Take “ACGGAGCAGTCCATTAATACGTGATTAATTAAGAATTAGCCGGAGTCACCTAGTGCAG”: the binding signal was 10800 fluorescence intensity (a.u.).
For “TTTGTTGATTTGTTTTGGTTGGATTGATCTGTCGCTTATACGGAGTCACCTAGTGCAG” the value was 25500 fluorescence intensity (a.u.).
As for “ACACTATATTTAAATTTCTTTCCATCCTACCCAATCACCCCGGAGTCACCTAGTGCAG”, the figure is 3520 fluorescence intensity (a.u.).
As to “GTACATTAAATTGGGGAATAAGCCGGTAACAGGGCAGTGGCGGAGTCACCTAGTGCAG”, the binding signal is 8180 fluorescence intensity (a.u.).
For “CTCTACTAATGCTAATTTGTCTTGTCCTGAGTTAGTTGTTCGGAGTCACCTAGTGCAG” the value was 6380 fluorescence intensity (a.u.).
As for “GACATGATTATTAGTCAGACGACGAATAGTTGTGAGGTGACGGAGTCACCTAGTGCAG”, the figure is 5130 fluorescence intensity (a.u.).
For “AGTGACTGGCTCCTTGTACAGTTGTCCTGCCGTTTCAATCCGGAGTCACCTAGTGCAG” the value was 3190 fluorescence intensity (a.u.); for “AATTGATTTAACTAAGTGCATTTTGGTCAACAAAGATGTGCGGAGTCACCTAGTGCAG”, 25800 fluorescence intensity (a.u.).
With “CCGCAAATCACCTTAATATCTAAGTATGACTCGTAGACAACGGAGTCACCTAGTGCAG”, the binding signal was 6040 fluorescence intensity (a.u.).
For “CTAGATTTATTAATATCGATATGAATGTGGAAAATGCTAGCGGAGTCACCTAGTGCAG” the value was 25500 fluorescence intensity (a.u.).
Turning to “CAGTGAGGATTAAAAGTTGATTAACAGAGTAATCCCCTTTCGGAGTCACCTAGTGCAG”, the binding signal is 4580 fluorescence intensity (a.u.).
With “TATTAATTGGTGGCTAGTAGTGTTCATCAGATCCTAGATGCGGAGTCACCTAGTGCAG”, the binding signal is 36100 fluorescence intensity (a.u.).
For “GCACAGATTAGCACACTGGAAATCAATGAGCACACATACACGGAGTCACCTAGTGCAG” the value was 4560 fluorescence intensity (a.u.); for “ATGAAATATAATTTGTTAATAAAAGGGCGGTTCAGATTGTCGGAGTCACCTAGTGCAG”, 6400 fluorescence intensity (a.u.).
As for “CGGCGACCGTGGAGTAATTGATGGGCCTCAGAGCGTCGGTCGGAGTCACCTAGTGCAG”, the figure is 11800 fluorescence intensity (a.u.); as for “CCGGCCAATCAGAAAATTCCGTGGCAATAATATATATACCCGGAGTCACCTAGTGCAG”, 12800 fluorescence intensity (a.u.); as for “CTGTAATTAGTTTTCCTTAAGTTATAAGATGTAATTTTGTCGGAGTCACCTAGTGCAG”, 29300 fluorescence intensity (a.u.).
For “CAGTATCGCTAATTAATGACATCAACACTAATCAGCGTTGCGGAGTCACCTAGTGCAG” the value was 20800 fluorescence intensity (a.u.); for “AAGATTGATGCAAGGAAACAGTGACTCGCCGTAGGGCTTACGGAGTCACCTAGTGCAG”, 13600 fluorescence intensity (a.u.); for “AAGTAATTTGAGAGAAAATTCGTTTTAAATATCATTAAAGCGGAGTCACCTAGTGCAG”, 8590 fluorescence intensity (a.u.).
As for “TCGCCAATGATTGATCGCCTCATTCCCTCCTCCTCCTCCTCGGAGTCACCTAGTGCAG”, the binding signal is 57300 fluorescence intensity (a.u.).
As for “GTTCTTTGACAGGTTGACGGGGAGGAACAAGGAGGCGTGGCGGAGTCACCTAGTGCAG”, the figure is 21100 fluorescence intensity (a.u.).
For “TTACAGTCATTGACTGTTTAGCATCATTTGAGCCACTGTGCGGAGTCACCTAGTGCAG” the value was 20300 fluorescence intensity (a.u.); for “GGTTGATTCCTTCAATGGATTGCCATGCATGTATGCCCAGCGGAGTCACCTAGTGCAG”, 7690 fluorescence intensity (a.u.).
As to “TTTAATTCCAAATTTCAGCAATAAATTATATTTCTATATGCGGAGTCACCTAGTGCAG”, the binding signal was 4790 fluorescence intensity (a.u.).
As for “CTAACCAATCATCAAATTGTCACTGAAGTCCAAGCTACAACGGAGTCACCTAGTGCAG”, the figure is 12700 fluorescence intensity (a.u.); as for “TGGATTGATCACCAGATGGAATATCCCGTGTACGCTTTCCCGGAGTCACCTAGTGCAG”, 21900 fluorescence intensity (a.u.); as for “AATTTAAATTTGAATCGGATATAATTCAAATTCAAATTTGCGGAGTCACCTAGTGCAG”, 9610 fluorescence intensity (a.u.).
As for “TCTGATTAGTATATATATATATATATATTATACATTATGACGGAGTCACCTAGTGCAG”, the figure is 28200 fluorescence intensity (a.u.).
For “TGCAAATTGAGAAACACACTACATCTCATATTGCGGTTGGCGGAGTCACCTAGTGCAG” the value was 24600 fluorescence intensity (a.u.); for “AGGACTCTAATCCCTTGTAATTAGGATCACCGAACCAACACGGAGTCACCTAGTGCAG”, 3170 fluorescence intensity (a.u.); for “CTTAATGTATGTTGATTTGTCATCACATGTATGATTAGGGCGGAGTCACCTAGTGCAG”, 56400 fluorescence intensity (a.u.).
